# Measurements: PubChem BioAssay AID2147 (National Center for Advancing Translational Sciences (NCATS), 2009)
# Out of some 230,000 compounds screened, about 3,600 (1.6%) were called active. The inconclusive results got no clear call from the source; some entries with a clear call stand among them for comparison. Calls follow the shape of the dose curve; as a rule, active = well fitted inhibition curve with a large enough effect (not every such curve was filed as active); inconclusive = small, poorly fitted or top-dose-only effect, or another doubt; inactive = no such curve, though single readings can be large or run the other way. Where the call is inconclusive, the potency comes from a doubtful curve fit.
# Molecular target: Lysine-specific demethylase 4E (Homo sapiens) (UniProt B2RXH2)
# UniProt B2RXH2, sequence (B2RXH2 whole entry, looked up, the tested form may be a part): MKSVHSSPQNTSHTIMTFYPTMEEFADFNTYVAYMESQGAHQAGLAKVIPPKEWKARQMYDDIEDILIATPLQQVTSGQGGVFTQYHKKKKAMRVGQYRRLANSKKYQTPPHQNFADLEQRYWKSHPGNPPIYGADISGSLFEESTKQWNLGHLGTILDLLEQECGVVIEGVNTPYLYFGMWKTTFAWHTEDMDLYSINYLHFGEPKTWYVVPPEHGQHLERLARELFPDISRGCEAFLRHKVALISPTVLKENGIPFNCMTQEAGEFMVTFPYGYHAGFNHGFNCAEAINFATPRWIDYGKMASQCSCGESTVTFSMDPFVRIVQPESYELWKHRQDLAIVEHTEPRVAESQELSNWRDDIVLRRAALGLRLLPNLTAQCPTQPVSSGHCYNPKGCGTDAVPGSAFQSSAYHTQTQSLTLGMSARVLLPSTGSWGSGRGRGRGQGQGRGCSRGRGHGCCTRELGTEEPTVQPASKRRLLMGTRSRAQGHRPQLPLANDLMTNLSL
# Assay: qHTS Assay for Inhibitors of Human Jumonji Domain Containing 2E (JMJD2E)
# Settings: JMJD2E catalytic domain, FDH-coupled NADH fluorescence (FDH is formaldehyde dehydrogenase); series mostly up to 57.1 µM
# Also: nearly all actives have a fitted effect of over 50% in size.
# Potency is read from the fitted curve at half-maximal effect; tags tell the direction and shape of the fitted curve.
row,Compound,Potency
1,Cc1ccc(S(=O)(=O)N2CCOCC2)cc1NC(=O)COC(=O)c1cc(=O)[nH]c2ccccc12,"inconclusive: 22.4 µM [inhibitor, partial curve]"
2,CCC1(c2ccc(Cl)cc2)NC(=S)N(c2ccccc2)N1 (centres undefined),"inconclusive: 17.8 µM [inhibitor, single point]"
3,N#C/C(=C\c1ccc(N2CCOCC2)o1)C(=O)NCC1CCCO1 (centres undefined),"inconclusive: 39.8 µM [inhibitor, single point]"
4,Cc1noc(C)c1CN1C(=O)NC(Cc2ccccc2)(Cc2ccccc2)C1=O,inactive
5,CCN(CC)S(=O)(=O)c1cccc(C(=O)N[C@H](C(=O)OCC(=O)Nc2ccccc2)C(C)C)c1,"inconclusive: 35.5 µM [inhibitor, single point]"
6,CC1(C)CC(=O)C=C(NNC(=O)c2ccccc2O)C1,"inconclusive: 31.6 µM [inhibitor, partial curve]"
7,COc1ccc(Br)cc1C(=O)Nc1ccccc1N1CCN(C(=O)c2ccccc2)CC1,"inconclusive: 39.8 µM [inhibitor, single point]"
8,COc1ccc(/C=C2\OC(=O)c3c(OC)cccc32)cc1OC,"inconclusive: 14.1 µM [inhibitor, partial curve]"
9,Cc1cc([N+](=O)[O-])nn1CCCC(=O)N1CCN(c2ccc(F)cc2)CC1,inactive
10,NC(=O)Nn1c(CCC(=O)O)ccc1-c1ccc(Br)cc1,"inconclusive: 39.8 µM [inhibitor, single point]"
11,COc1ccccc1-n1c(-c2ccccc2)c[n+]2c1CCc1ccccc1-2,inactive
12,NC(=O)c1ccccc1NS(=O)(=O)c1ccc2c(c1)OCCO2,"inconclusive: 28.2 µM [inhibitor, partial curve]"
13,C/C(Cl)=C\CSc1nnc2n(N)c(=O)c3ccccc3n12,inactive
14,O=C(Nc1cccc(C(F)(F)F)c1)c1cc(S(=O)(=O)N2CCCCC2)ccc1N1CCOCC1,"inconclusive: 35.5 µM [inhibitor, single point]"
15,O=C(O)/C=C\C(=O)Nc1ccc(Oc2ccc(Br)cc2)cc1,inactive
16,CCOC(=O)CCc1c(C)c2ccc(OCC(=O)N(CC)CC)c(C)c2oc1=O,"inconclusive: 28.2 µM [inhibitor, partial curve]"
17,CS(=O)(=O)Nc1ccc(C(=O)NCCc2ccccc2)cc1,inactive
18,O=C(CCCCCNC(=O)c1ccccc1)N/N=C/c1ccccc1O,active: 25.1 µM
19,Cc1ccc(S(=O)(=O)N(CCO)Cc2cc3ccc(C)c(C)c3[nH]c2=O)cc1,"inconclusive: 39.8 µM [inhibitor, single point]"
